From PubChem BioAssay AID686979 (National Center for Advancing Translational Sciences (NCATS), 2013)
Out of some 420,000 compounds screened, about 50,000 (12%) were called active. The inconclusive results got no clear call from the source; some entries with a clear call stand among them for comparison. The call rests on the fitted dose curve; in most records, active means well fitted inhibition curve with a large enough effect; inconclusive means small, poorly fitted or top-dose-only effect; inactive means flat fitted curve, though single readings scatter. Potencies of inconclusive entries are left out as doubtful fits.

Experiment: qHTS for Inhibitors of human tyrosyl-DNA phosphodiesterase 1 (TDP1): qHTS in cells in presence of CPT; further: nearly all actives have a fitted effect of over 55% in size
Details: chicken DT40 Tdp1-/-;hTDP1 cells + 20 nM CPT, ATP luminescence, 48 h; activity change, negative = growth inhibition: at 46.2 µM (top of the series) unless noted
Outline: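 Chicken DT40 Tdp1-/- cells complemented with human TDP1, 400 cells/well, exposed to compounds plus 20 nM camptothecin for at least 48 h at 37 C; viability read as ATP content by CellTiter-Glo luminescence.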
On the % scale 0 is the no-effect control and ±100 the full control effect; potency means the concentration at half of the fitted maximal effect; tags describe the fitted curve by direction and shape.

SMILES | Potency | activity change, negative = growth inhibition
Cc1ccc2nc(-c3ccc(NS(=O)(=O)c4ccc(F)cc4)cc3)sc2c1 | inconclusive [inhibitor, single point] | 
O=c1cc(-c2ccccc2F)nc(-c2ccccc2F)o1 |  | inactive: -18.7%
Cc1nn(Cc2ccccc2)c(C)c1NS(=O)(=O)c1ccccc1 |  | inactive: 8.74%
CN(C(=O)CCN1C(=O)S/C(=C\c2ccccc2)C1=O)C1CCS(=O)(=O)C1 (configuration not stated) | inconclusive [inhibitor, partial curve] | 
CCOc1cccc2c1OC1(C)CC2NC(=O)N1c1ccc(OC)cc1 (configuration not stated) | inconclusive [inhibitor, single point] | 
CC(C)(C)OC(=O)CC[C@@H](C(=O)NCCCCCCCCCCC(=O)N1CCN(C(=O)OC(C)(C)C)CC1)n1cc(CCCCCNC(=O)OC(C)(C)C)nn1 | active: 5.8 µM | 
COC(=O)c1ccc(Cn2c(=O)cc(C(F)(F)F)c3c(C)nn(C)c32)cc1 | inconclusive [inhibitor, single point] | 
COc1ccc(NCc2nnc(SCC(=O)c3ccc(OC)cc3)o2)cc1 | inconclusive [inhibitor, single point] | 
CCCn1c2ccccc2c2cnn(CC(=O)NCCc3ccccc3)c(=O)c21 | active: 23.1 µM | 
Oc1ccc(C[C@H]2CNC(=S)N2C[C@H]2CCCN2C[C@H](Cc2ccccc2)N2C[C@H](Cc3ccccc3)N(CC3CCCCC3)C2=S)cc1 | inconclusive [inhibitor, single point] | 
CCOC(=O)C1=C(Cc2ccc(OC)cc2)C(=O)c2ccccc2C1=O | active: 4.61 µM | 
C=CCOn1c(=O)c(-c2ccc(OC)c(OC)c2)[n+]([O-])c2ccccc21 | inconclusive [inhibitor, single point] | 
COc1ccc(S(=O)(=O)Nc2cccc3c2O[C@H](CN(C)Cc2ccc(-c4ccccc4)cc2)[C@@H](C)CN([C@H](C)CO)C3=O)cc1 | inconclusive [inhibitor, single point] | 
O=C(Nc1ccc(C2CC2(Cl)Cl)cc1)c1ccccc1Br (configuration not stated) | active: 18.4 µM | 
Cc1ccc(S(=O)(=O)NCc2ccc3c(c2)cc(C)n3C)cc1 | inconclusive [inhibitor, partial curve] | 
Cc1cc(OCC(=O)NNC(=S)NC(=O)c2cccs2)ccc1Cl | inconclusive [inhibitor, single point] | 
O=C(N=Nc1c(O)n(Cc2ccccc2)c2ccccc12)c1ccncc1 | inconclusive [inhibitor, single point] | 
CCCc1n(CC(O)COCc2ccccc2)c2ccccc2[n+]1C (configuration not stated) | active: 23.1 µM | 
CN(C(=O)c1ccccc1C(=O)OCC(=O)Nc1ccc(OC(F)F)cc1)c1ccccc1 | inconclusive [inhibitor, single point] | 
O=C(Nc1cccnc1)c1ccc(Cl)c(S(=O)(=O)N2CCOCC2)c1 | inconclusive [inhibitor, single point] | 
O=S1(=O)N[C@@H](Cc2ccccc2)COc2cccc(N3CCC[C@H]3CO)c21 | inconclusive [inhibitor, single point] | 

SMILES | Potency | activity change, negative = growth inhibition
CCN(c1ccc(OC)cc1)S(=O)(=O)c1ccc2[nH]c(=O)ccc2c1 |  | inactive: -14.8%
C=CCn1c(SCC(=O)Nc2cccnc2Cl)nnc1-c1ccc(Cl)cc1 | inconclusive [inhibitor, partial curve] | 
O=C1c2ccccc2S(=O)(=O)c2cc(N3CCC4(CC3)OCCO4)ccc21 | inconclusive [inhibitor, single point] | 
C[C@H]1CN(S(=O)C(C)(C)C)[C@H](CCO)/C1=C\c1ccccc1 (some centres not stated) |  | inactive: -1.73%
CSc1ccc(CN2CCC(N3CCC(C(=O)NC4CC4)CC3)CC2)cc1 | active: 20.6 µM | 
Cc1ccccc1Cn1c(=O)n(CCc2ccccc2)c(=O)c2ccccc21 | inconclusive [inhibitor, partial curve] | 
Cc1ccc(CNC(=O)CN(C(=O)C2(C)CC(=O)N=C3C=CC=CN32)c2cccc(C)c2C)cc1 (configuration not stated) |  | inactive: 9.66%
CN(C)c1nc(-c2ccccc2)c2cnn(Cc3ccccc3)c2n1 | inconclusive [inhibitor, partial curve] | 
Cc1cc(N2CCCCC2)nc2ccc(NC(=O)/C=C/c3ccccc3Cl)cc12 | active: 13 µM | 
CCc1cc(C(=O)Nc2ccc(C)cc2Br)cs1 | inconclusive [inhibitor, single point] | 
O=C(Nc1ccccc1C(=O)OCc1cc(=O)n2c3c(sc2n1)CCCC3)c1cccc(Cl)c1 | inconclusive [inhibitor, single point] | 
CC(C)c1nc(SCC(=O)Nc2ccc([N+](=O)[O-])cc2Br)n[nH]1 | inconclusive [inhibitor, single point] | 
COc1cccc(/C=N/Nc2ncnc(N)c2[N+](=O)[O-])c1OC |  | inactive: -15.5%
CCc1ccccc1NC(=O)NCc1ccc2c(c1)CCN2C(=O)c1ccccc1 | inconclusive [inhibitor, single point] | 
CC(C)C(=O)NC(c1ccccc1)c1cc([N+](=O)[O-])c2cccnc2c1O (configuration not stated) | active: 18.4 µM | 
COc1ccc(CCN(C)C(=S)NC(=O)c2ccc(F)cc2Cl)cc1OC | inconclusive [inhibitor, single point] | 
CNc1cc(CSC)nc(SCc2ccc(Cl)cc2Cl)n1 | inconclusive [inhibitor, single point] | 
COC(=O)c1c(-c2ccc(Cl)cc2)noc1N1CCN(c2cccc(C(F)(F)F)c2)CC1 | active: 14.6 µM | 
COc1ccc(-c2nnc(C)c3nocc23)cc1 | inconclusive [inhibitor, partial curve, poor fit] | 
CC(C)N1CCc2c(sc(NC(=O)c3ccc(S(=O)(=O)N4CCOCC4)cc3)c2C#N)C1 | active: 23.1 µM | 
Cc1nnc2nc(-c3ccccc3)nc(-c3ccccc3)n12 | inconclusive [inhibitor, single point] | 
